According to patent US20100075953A1, “SUBSTITUTED PIPERAZINES, (1,4) DIAZEPINES, AND 2,5-DIAZABICYCLO (2.2.1) HEPTANES AS HISTAMINE H1 AND/OR H3 ANTAGONISTS OR HISTAMINE H3 REVERSE ANTAGONISTS” (Glaxo Group Limited, priority 2002, published 2010):
Some entries share one result that the patent states for a list of compounds.

Target: histamine H3 receptor (Homo sapiens, UniProt Q9Y5N1)
Experiment: Histamine H3 functional antagonist assay
Conditions: membranes of CHO K1 cells expressing human H3, [35S]GTPgammaS SPA, histamine 0.3 μM

histamine H3 receptor, sequence (Q9Y5N1 whole entry): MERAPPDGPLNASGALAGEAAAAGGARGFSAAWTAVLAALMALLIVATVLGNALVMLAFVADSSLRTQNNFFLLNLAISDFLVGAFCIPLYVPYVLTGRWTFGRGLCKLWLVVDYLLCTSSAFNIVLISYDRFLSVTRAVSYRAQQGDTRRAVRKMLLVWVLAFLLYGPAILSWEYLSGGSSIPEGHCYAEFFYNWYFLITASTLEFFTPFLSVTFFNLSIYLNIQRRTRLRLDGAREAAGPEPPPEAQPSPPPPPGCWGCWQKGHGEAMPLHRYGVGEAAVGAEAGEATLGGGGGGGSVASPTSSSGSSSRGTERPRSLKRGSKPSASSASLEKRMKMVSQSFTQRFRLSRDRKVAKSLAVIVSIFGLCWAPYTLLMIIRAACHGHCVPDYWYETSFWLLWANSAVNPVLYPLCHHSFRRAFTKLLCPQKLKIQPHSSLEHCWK

O=C(c1ccc(Cl)c(Cl)c1)N1CCN(c2ccc(OCCCN3CCCCC3)cc2)CC1 [Example E37, 1-(3,4-Dichloro-phenyl)-1-{4-[4-(3-piperidin-1-yl-propoxy)-phenyl]-piperazin-1-yl}-methanone]
antagonism in the histamine H3 functional antagonist assay (pKb): > 8.4 pKb
antagonism in the histamine H3 functional antagonist assay (pKb) (listed as Example E37): > 6.5 pKb

O=C(c1ccccc1)N1CCN(c2ccc(OCCCN3CCCC3)cc2)CC1 [Example E462, 1-Phenyl-1-{4-[4-(3-pyrrolidin-1-yl-propoxy)-phenyl]-piperazin-1-yl}-methanone]
antagonism in the histamine H3 functional antagonist assay (pKb): > 6.5 pKb

CS(=O)(=O)c1ccc(C(=O)N2CCN(c3ccc(OCCCN4CCCCC4)cc3)CC2)cc1 [Example E360, 1-{[4-(Methylsulfonyl)phenyl]carbonyl}-4-(4-{[3-(1-piperidinyl)propyl]oxy}phenyl)piperazine]
antagonism in the histamine H3 functional antagonist assay (pKb): > 6.5 pKb

O=C(c1cnn2ccccc12)N1CCN(c2ccc(OCCCN3CCCCC3)cc2)CC1 [Example E401, 3-{[4-(4-{[3-(1-Piperidinyl)propyl]oxy}phenyl)-1-piperazinyl]carbonyl}pyrazolo[1,5-a]pyridine]
antagonism in the histamine H3 functional antagonist assay (pKb): > 6.5 pKb

N#Cc1ccc(C(=O)N2CCN(c3ccc(OCCCN4CCCCC4)cc3F)CC2)cc1 [Example E311, 4-{[4-(2-Fluoro-4-{[3-(1-piperidinyl)propyl]oxy}phenyl)-1-piperazinyl]carbonyl}benzonitrile]
antagonism in the histamine H3 functional antagonist assay (pKb): > 8.4 pKb
antagonism in the histamine H3 functional antagonist assay (pKb) (listed as Example 311): > 6.5 pKb

O=C(N1CCOCC1)N1CCN(c2ccc(OC3CCN(C4CCC4)CC3)cc2)CC1 [Example E292, 4-[(4-{4-[(1-Cyclobutyl-4-piperidinyl)oxy]phenyl}-1-piperazinyl)carbonyl]morpholine]
antagonism in the histamine H3 functional antagonist assay (pKb): > 6.5 pKb

Cc1cc(C(=O)N2CCN(Cc3ccc(OCCCN4CCCCC4)cc3)CC2)ccc1Br [Example E5, 1-(4-Bromo-3-methyl-phenyl)-1-{4-[4-(3-piperidin-1-yl-propoxy)-benzyl]-piperazin-1-yl}-methanone]
antagonism in the histamine H3 functional antagonist assay (pKb): > 6.5 pKb

O=C(c1ccc(F)cc1)N1CCN(Cc2ccc(OCCCN3CCCCC3)cc2)CC1 [Example E9, 1-(4-Fluoro-phenyl)-1-{4-[4-(3-piperidin-1-yl-propoxy)-benzyl]-piperazin-1-yl}-methanone]
antagonism in the histamine H3 functional antagonist assay (pKb): > 6.5 pKb

O=C(c1ccccc1)N1CCN(c2ccc(OC[C@H]3CCCN(C4CCCC4)C3)cc2)CC1 [Example E297, 1-[4-({[(3S)-1-Cyclopentyl-3-piperidinyl]methyl}oxy)phenyl]-4-(phenylcarbonyl)piperazine]
antagonism in the histamine H3 functional antagonist assay (pKb): > 6.5 pKb

C[C@@H]1CN(C(=O)C2CCOCC2)CCN1c1ccc(OCCCN2CCCCC2)cc1 [Example E329, (2R)-2-Methyl-1-(4-{[3-(1-piperidinyl)propyl]oxy}phenyl)-4-(tetrahydro-2H-pyran-4-ylcarbonyl)piperazine]
antagonism in the histamine H3 functional antagonist assay (pKb): > 8.4 pKb
antagonism in the histamine H3 functional antagonist assay (pKb) (listed as Example 329): > 6.5 pKb

Cc1cc(C(=O)N2CCN(c3ccc(OCCCN4CCCCC4)cc3)CC2)ccc1F [Example E366, 1-[(4-Fluoro-3-methylphenyl)carbonyl]-4-(4-{[3-(1-piperidinyl)propyl]oxy}phenyl)piperazine]
antagonism in the histamine H3 functional antagonist assay (pKb): > 6.5 pKb

O=C(c1cccc(Br)c1)N1CCN(c2ccc(OCCCN3CCCCC3)cc2)CC1 [Example E339, 1-[(3-Bromophenyl)carbonyl]-4-(4-{[3-(1-piperidinyl)propyl]oxy}phenyl)piperazine]
antagonism in the histamine H3 functional antagonist assay (pKb): > 6.5 pKb

Cc1cc(Br)ccc1C(=O)N1CCN(c2ccc(OCCCN3CCCCC3)cc2)CC1 [Example E358, 1-[(4-Bromo-2-methylphenyl)carbonyl]-4-(4-{[3-(1-piperidinyl)propyl]oxy}phenyl)piperazine]
antagonism in the histamine H3 functional antagonist assay (pKb): > 6.5 pKb

N#Cc1cc(OCCCN2CCCCC2)ccc1N1CCN(C(=O)c2ccccc2)CC1 [Example E306, 2-[4-(Phenylcarbonyl)-1-piperazinyl]-5-{[3-(1-piperidinyl)propyl]oxy}benzonitrile]
antagonism in the histamine H3 functional antagonist assay (pKb): > 6.5 pKb

O=C(c1ccc(Cl)cc1F)N1CCN(c2ccc(OCCCN3CCCCC3)cc2)CC1 [Example E365, 1-[(4-Chloro-2-fluorophenyl)carbonyl]-4-(4-{[3-(1-piperidinyl)propyl]oxy}phenyl)piperazine]
antagonism in the histamine H3 functional antagonist assay (pKb): > 6.5 pKb

O=C(c1cc2ccccc2o1)N1CCCN(Cc2ccc(OCCCN3CCCCC3)cc2)CC1 [Example E21, 1-Benzofuran-2-yl-1-{4-[4-(3-piperidin-1-yl-propoxy)-benzyl]-[1,4]diazepan-1-yl}-methanone]
antagonism in the histamine H3 functional antagonist assay (pKb): > 8.4 pKb
antagonism in the histamine H3 functional antagonist assay (pKb) (listed as Example E21): > 6.5 pKb

O=S(=O)(c1ccc2ccccc2c1)N1CCCN(Cc2ccc(OCCCN3CCCCC3)cc2)CC1 [Example E26, 1-(Naphthalene-2-sulfonyl)-4-[4-(3-piperidin-1-yl-propoxy)-benzyl]-[1,4]diazepane]
antagonism in the histamine H3 functional antagonist assay (pKb): > 6.5 pKb

C[C@@H]1CN(c2ccc(OCCCN3CCCCC3)cc2)C[C@H](C)N1C(=O)c1ccc(C#N)cc1 [Example E316, 4-{[(2R,6S)-2,6-Dimethyl-4-(4-{[3-(1-piperidinyl)propyl]oxy}phenyl)-1-piperazinyl]carbonyl}benzonitrile]
antagonism in the histamine H3 functional antagonist assay (pKb): > 6.5 pKb

N#Cc1cccc(CC(=O)N2CCN(c3ccc(OCCCN4CCCCC4)cc3)CC2)c1 [Example E419, 3-{2-Oxo-2-[4-(4-{[3-(1-piperidinyl)propyl]oxy}phenyl)-1-piperazinyl]ethyl}benzonitrile]
antagonism in the histamine H3 functional antagonist assay (pKb): > 6.5 pKb

O=C(c1ccccc1)N1CCN(c2ccc(OCCCN3CCCCC3)cc2)CC1 [Example E36, 1-Phenyl-1-{4-[4-(3-piperidin-1-yl-propoxy)-phenyl]-piperazin-1-yl}-methanone]
antagonism in the histamine H3 functional antagonist assay (pKb): > 8.4 pKb
antagonism in the histamine H3 functional antagonist assay (pKb) (listed as Example E36): > 6.5 pKb

O=C(N1CCCC1)N1CCN(c2ccc(OCCCN3CCCCC3)cc2)CC1 [Example E270, 1-(4-{[3-(1-Piperidinyl)propyl]oxy}phenyl)-4-(1-pyrrolidinylcarbonyl)piperazine]
antagonism in the histamine H3 functional antagonist assay (pKb): > 8.4 pKb
antagonism in the histamine H3 functional antagonist assay (pKb) (listed as Example 270): > 6.5 pKb

CC(C)N1CCC(Oc2ccc(N3CCN(C(=O)N4CCOCC4)CC3)cc2)CC1 [Example E293, 4-{[4-(4-{[1-(1-Methylethyl)-4-piperidinyl]oxy}phenyl)-1-piperazinyl]carbonyl}morpholine]
antagonism in the histamine H3 functional antagonist assay (pKb): > 6.5 pKb

C[C@@H]1CN(C(=O)c2ccc(C#N)cc2)[C@@H](C)CN1c1ccc(OCCCN2CCCCC2)cc1 [Example E454, 4-(1-{(2S,5R)-2,5-Dimethyl-4-[4-(3-piperidin-1-yl-propoxy)-phenyl]-piperazin-1-yl}-methanoyl)-benzonitrile]
antagonism in the histamine H3 functional antagonist assay (pKb): > 6.5 pKb

O=C(C1CCSCC1)N1CCN(c2ccc(OCCCN3CCCCC3)cc2)CC1 [Example E430, 1-(4-{[3-(1-Piperidinyl)propyl]oxy}phenyl)-4-(tetrahydro-2H-thiopyran-4-ylcarbonyl)piperazine]
antagonism in the histamine H3 functional antagonist assay (pKb): > 8.4 pKb
antagonism in the histamine H3 functional antagonist assay (pKb) (listed as Example 430): > 6.5 pKb

O=C(c1ccccc1)N1CCCN(c2ccc(OCCCN3CCCCC3)cc2)CC1 [Example E449]
antagonism in the histamine H3 functional antagonist assay (pKb): > 8.4 pKb
antagonism in the histamine H3 functional antagonist assay (pKb) (listed as Example 449): > 6.5 pKb

O=C(c1ccc(F)cc1)N1CCN(c2ccc(OCCCN3CCCCC3)cc2F)CC1 [Example E312, 1-[(4-Fluorophenyl)carbonyl]-4-(2-fluoro-4-{[3-(1-piperidinyl)propyl]oxy}phenyl)piperazine]
antagonism in the histamine H3 functional antagonist assay (pKb): > 6.5 pKb

Methyl 4-{[4-(4-{[3-(1-piperidinyl)propyl]oxy}phenyl)-1-piperazinyl]carbonyl}benzoate [Example E354]
antagonism in the histamine H3 functional antagonist assay (pKb): > 6.5 pKb

CC1CCN(C(=O)c2ccc(C(=O)N3CCN(c4ccc(OCCCN5CCCCC5)cc4)CC3)cc2)CC1 [Example E438, 1-({4-[(4-Methyl-1-piperidinyl)carbonyl]phenyl}carbonyl)-4-(4-{[3-(1-piperidinyl)propyl]oxy}phenyl)piperazine]
antagonism in the histamine H3 functional antagonist assay (pKb): > 8.4 pKb
antagonism in the histamine H3 functional antagonist assay (pKb) (listed as Example 438): > 6.5 pKb

O=C(c1ccc2ncccc2c1)N1CCN(c2ccc(OCCCN3CCCCC3)cc2)CC1 [Example E350, 6-{[4-(4-{[3-(1-Piperidinyl)propyl]oxy}phenyl)-1-piperazinyl]carbonyl}quinoline]
antagonism in the histamine H3 functional antagonist assay (pKb): > 8.4 pKb
antagonism in the histamine H3 functional antagonist assay (pKb) (listed as Example 350): > 6.5 pKb

O=C(c1ccsc1)N1CCN(c2ccc(OCCCN3CCCCC3)cc2)CC1 [Example E353, 1-(4-{[3-(1-Piperidinyl)propyl]oxy}phenyl)-4-(3-thienylcarbonyl)piperazine]
antagonism in the histamine H3 functional antagonist assay (pKb): > 6.5 pKb
